According to patent US5036046A, “Method for enhancing healing of corneal endothelial wounds” (Eye Research Institute of Retina Foundation, Inc., priority 1988, dated 1991):

Assays:
[1] = test system: Corneal endothelial cells; test: Transmission electron microscopy of pharmacologically modulated endothelial phenotypes; settings: treated cultures
[2] = test system: Corneal endothelial cells; test: f-actin labelling with rhodamine labelled phallacidin in cultured corneal endothelial cells; settings: 1 week in culture
Text: Widely separated cables of somewhat smaller diameter were also seen within the cytoplasm of these cells.

| Compound | ultrastructure by transmission electron microscopy [1] | f-actin staining pattern [2] |
| --- | --- | --- |
| COc1ccc2c(c1)c(CC(=O)O)c(C)n2C(=O)c1ccc(Cl)cc1 [indomethacin] | extensive cytoplasmic overlap and close ajunctional apposition of the membranes of adjacent cells | – |
| CCCCC[C@H](O)/C=C/[C@H]1[C@H](O)CC(=O)[C@@H]1C/C=C\CCCC(=O)O [pgE2, prostaglandin E2] | maintained the differentiated morphology of the polygonal cells | circumferential actin bands and discrete cytoplasmic fibers were apparent |
| epidermal growth factor [EGF] | – | actin fibers throughout the cytoplasm running roughly parallel to the long axis of the cell |
